According to the supplement of paper PMC3334620:
Whole data set: some 33,000 sequences, median “E-score (-0.5 to 0.5)” near -0.043, cut for the highest 2% near 0.37. Some of the results follow.

Each sequence was assayed against T1, Upc2 (UniProt Q12151) (assay: PBM E-score (8-mer binding enrichment) (E-score (-0.5 to 0.5)); higher = stronger / more preferred TF binding; most listed sequences are background and not binding sites). Conditions: protein concentration: 200 nM; construct: GST-full length.
T1 sequence: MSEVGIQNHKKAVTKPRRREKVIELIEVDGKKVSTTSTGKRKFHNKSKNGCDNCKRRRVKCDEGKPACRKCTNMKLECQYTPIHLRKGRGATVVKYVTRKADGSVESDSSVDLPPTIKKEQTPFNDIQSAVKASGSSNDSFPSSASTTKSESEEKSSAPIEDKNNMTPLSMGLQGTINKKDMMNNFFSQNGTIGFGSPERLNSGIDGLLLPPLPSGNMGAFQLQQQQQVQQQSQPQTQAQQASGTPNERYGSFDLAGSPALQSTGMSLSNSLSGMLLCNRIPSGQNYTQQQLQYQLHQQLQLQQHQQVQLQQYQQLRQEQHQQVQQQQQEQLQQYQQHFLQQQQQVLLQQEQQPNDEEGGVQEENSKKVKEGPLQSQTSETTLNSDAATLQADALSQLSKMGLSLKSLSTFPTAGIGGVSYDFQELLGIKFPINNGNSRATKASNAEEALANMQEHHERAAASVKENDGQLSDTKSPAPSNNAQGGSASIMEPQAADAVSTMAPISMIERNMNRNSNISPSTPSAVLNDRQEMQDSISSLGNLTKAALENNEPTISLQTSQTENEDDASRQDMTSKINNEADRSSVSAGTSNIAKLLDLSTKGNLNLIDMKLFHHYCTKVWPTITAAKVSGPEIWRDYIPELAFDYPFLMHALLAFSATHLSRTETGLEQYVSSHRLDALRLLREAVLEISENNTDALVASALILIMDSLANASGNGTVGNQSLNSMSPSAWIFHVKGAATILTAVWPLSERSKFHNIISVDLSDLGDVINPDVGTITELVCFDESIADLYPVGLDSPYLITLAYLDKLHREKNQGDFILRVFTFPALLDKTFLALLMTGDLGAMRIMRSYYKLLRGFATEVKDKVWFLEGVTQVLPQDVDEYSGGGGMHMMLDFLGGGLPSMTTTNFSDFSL
Procedure, shortened: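 Universal all-10-mer Agilent arrays, double-stranded by primer extension on fresh or once-stripped slides, were probed with about 100-200 nM GST-tagged yeast transcription factors made by PURExpress. Fluorescent anti-GST detected bound protein, and masliner normalised the scans. E-scores from the Universal PBM Analysis Suite were given to each ungapped eight-base word pooled with its reverse complement.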

Sequence	PBM E-score
CCCACCGA	-0.162
CAGGCGAC	-0.308
AGTGTGGG	-0.207
GGCGATTA	-0.0121
AGCAAAGG	0.00827
AATGCTAA	-0.0517
ACGCAGAG	0.0958
GGTTAAGA	0.0134
GGTGAAAC	0.114
TCAGATCA	-0.262
GTACGAGA	0.472
ACATGACC	-0.0302
AGTAAGAC	-0.0724
GAAACTCC	-0.189
CTTTTATC	0.00372
ATTTCGAA	0.126
CTTGTCCC	-0.148
AGCAAATA	-0.127
GGCTCTAA	0.018
CAAGGGTC	-0.229
CGTAACGC	0.324
AGGTCAAG	-0.298

Sequence	PBM E-score
CCCGCTTA	0.218
GCAGCTCC	-0.189
CAGCCATG	-0.19
GTTGCGTA	0.244
CGAAATAC	0.243
AAGCTATA	0.106
ATCTCGTA	0.464
AACGGAGT	0.229
ACGTAAGC	0.137
CGAGGTGC	0.137
GCTAGCTA	0.0155
GGTTAGAA	0.00038
TACTAGAA	-0.0343
ATTATATC	0.051
GAGCCCAA	-0.11
CATGCACC	-0.179
CTCGAGTC	-0.195
ATGGAGAC	-0.101
CGGTATTC	-0.00151
AAAGTTAT	0.0721
CCAGATAG	-0.246
GGTATGAA	0.0119

Sequence	PBM E-score
GGGTTGCA	-0.0944
AAGATTGC	-0.0519
CTGCGTGA	-0.271
TATCCCGA	0.0238
CAGGTCTC	-0.172
CAAAAAGC	-0.015
CGCGCGGC	0.108
ATCTTAAC	0.198
ATTGTCCA	-0.102
AACAATTC	-0.164
AGGTTTAG	-0.00217
CGGAGTCA	-0.11
AGTATAAC	0.172
CAGGGCCG	-0.134
ATTGCTGC	-0.0333
CAACCCTC	-0.105
GGTTAACA	-0.00714
CCCGGCTA	-0.14
CTATTAAA	-0.0577
CCTGGCAC	-0.155
AATTAGTG	-0.0508
GAATCCCA	-0.126

Sequence	PBM E-score
TCGTTCAA	0.459
ACAGATTA	-0.111
AGGATGCC	-0.223
AGTAGAAC	-0.0654
ACCTTAGA	-0.132
AGAAGCTG	-0.0427
AGCATTCG	-0.025
ATCATAAC	0.0132
GGATCTTA	0.146
CTAGAAGC	-0.155
CCAGTAGA	-0.0976
GAGCGTCC	-0.00382
AATGGACG	-0.0583
AGAGTCGC	0.0951
ACTCCTAG	-0.306
ATGACACC	0.0439
TCGGAACA	0.107
GGGGCTGA	-0.151
ATCGATTA	0.162
GCACTACA	-0.104
